{"sequences": {"note": "Amino acid sequences for entries named in this document (tags omitted). A change or cut given only in a name is not applied to a line headed by its entry.", "UniProt P10415": "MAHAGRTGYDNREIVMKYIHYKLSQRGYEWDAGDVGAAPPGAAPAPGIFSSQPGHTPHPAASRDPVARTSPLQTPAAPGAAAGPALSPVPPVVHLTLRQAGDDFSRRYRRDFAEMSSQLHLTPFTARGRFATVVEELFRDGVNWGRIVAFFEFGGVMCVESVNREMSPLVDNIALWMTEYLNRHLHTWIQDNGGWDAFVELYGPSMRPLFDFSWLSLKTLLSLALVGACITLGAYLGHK"}, "source": "paper PMC6901440", "experiment_in_all_cases": "co-IP; HEK-293T cells transfected with Flag-tagged GSDMD or MLKL constructs and Bcl-2 or Bcl-2 G145A (MLKL also with RIP3); anti-Flag agarose beads; Bcl-2 detected by blot; washed eight times with lysis buffer", "key": {"[1]": {"target": "T1, Flag-GSDMD full length (human) (UniProt P57764)", "T1 sequence": "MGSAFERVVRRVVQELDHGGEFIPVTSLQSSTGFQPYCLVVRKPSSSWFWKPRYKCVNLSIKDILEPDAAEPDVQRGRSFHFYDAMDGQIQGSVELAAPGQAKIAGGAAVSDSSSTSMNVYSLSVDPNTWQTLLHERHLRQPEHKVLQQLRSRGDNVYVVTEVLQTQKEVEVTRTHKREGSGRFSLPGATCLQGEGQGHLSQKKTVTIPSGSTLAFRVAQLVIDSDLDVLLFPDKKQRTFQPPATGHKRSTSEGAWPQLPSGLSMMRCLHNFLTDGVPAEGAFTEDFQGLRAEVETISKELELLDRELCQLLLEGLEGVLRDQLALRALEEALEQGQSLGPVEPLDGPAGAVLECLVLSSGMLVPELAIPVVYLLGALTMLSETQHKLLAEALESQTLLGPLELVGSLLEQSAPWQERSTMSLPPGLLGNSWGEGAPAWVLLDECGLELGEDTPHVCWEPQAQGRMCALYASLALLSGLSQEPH"}, "[2]": {"target": "T2, Flag-GSDMD N-terminal fragment (human) (UniProt P57764)", "T2 sequence": "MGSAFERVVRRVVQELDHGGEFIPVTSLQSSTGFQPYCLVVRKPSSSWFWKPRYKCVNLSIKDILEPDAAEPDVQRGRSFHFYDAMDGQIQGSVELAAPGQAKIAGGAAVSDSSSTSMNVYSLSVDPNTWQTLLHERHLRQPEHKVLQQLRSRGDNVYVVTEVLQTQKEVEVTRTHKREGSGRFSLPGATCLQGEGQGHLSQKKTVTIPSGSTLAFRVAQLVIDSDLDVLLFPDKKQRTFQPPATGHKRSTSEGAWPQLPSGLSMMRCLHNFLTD"}, "[3]": {"target": "T3, Flag-MLKL phosphorylated by co-expressed RIP3 (human) (UniProt Q8NB16)", "T3 sequence (chain, phosphorylated by co-expressed RIP3 (sites TS357-58 as named in the legend))": "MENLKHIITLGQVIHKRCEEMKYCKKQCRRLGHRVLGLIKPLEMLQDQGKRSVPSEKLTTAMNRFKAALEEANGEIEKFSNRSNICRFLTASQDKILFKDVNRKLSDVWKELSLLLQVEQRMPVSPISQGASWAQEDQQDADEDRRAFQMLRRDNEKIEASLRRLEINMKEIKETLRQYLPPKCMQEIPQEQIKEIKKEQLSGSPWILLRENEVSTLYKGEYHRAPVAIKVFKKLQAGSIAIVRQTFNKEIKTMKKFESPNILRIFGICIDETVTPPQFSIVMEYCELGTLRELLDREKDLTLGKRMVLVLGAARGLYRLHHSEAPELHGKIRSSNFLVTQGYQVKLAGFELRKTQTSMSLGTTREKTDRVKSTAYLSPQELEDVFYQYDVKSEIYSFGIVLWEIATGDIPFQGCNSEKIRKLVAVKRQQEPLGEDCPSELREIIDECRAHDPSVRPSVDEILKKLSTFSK"}, "Flag-MLKL (human)": {"target": "T4, Flag-MLKL (human) (UniProt Q8NB16)", "T4 sequence": "T3 sequence (chain, phosphorylated by co-expressed RIP3 (sites TS357-58 as named in the legend))"}, "[4]": {"target": "T5, Flag-MLKL T357A/S358A (human) (UniProt Q8NB16)", "T5 sequence": "T3 sequence (chain, phosphorylated by co-expressed RIP3 (sites TS357-58 as named in the legend)) with T357A, S358A"}}, "note": "Numbering of substitutions follows the chain as printed. These are yes or no findings as the source states them, for the method shown. Binding seen in cells or lysates may run through a third protein. Some binding calls cover weakened binding; strength is not graded here. Sequences can lack the tags named with a protein.", "data": [{"substance": "Bcl-2 G145A (transfected, HEK-293T) (from UniProt P10415 1-239)", "values": [{"measurement": "binding", "setting": "[1]", "value": "no binding"}, {"measurement": "binding", "setting": "[2]", "value": "no binding"}]}, {"substance": "Bcl-2 (transfected, HEK-293T) (from UniProt P10415 1-239)", "values": [{"measurement": "binding", "setting": "[3]", "value": "binds"}, {"measurement": "binding", "setting": "[1]", "value": "binds"}, {"measurement": "binding", "setting": "[2]", "value": "binds"}, {"measurement": "binding", "setting": "Flag-MLKL (human)", "value": "binds"}, {"measurement": "binding", "setting": "[4]", "value": "binds"}]}]}
